Measurements: PubChem BioAssay AID938 (National Center for Advancing Translational Sciences (NCATS), 2007)
The campaign covered roughly 73,000 compounds. About 1,800 (2.5%) were called active. Inconclusive means that the source gave no clear call. Such entries were picked first, then a sample of the others. Calls follow the shape of the dose curve; as a rule, active = well fitted activation curve with a large enough effect; inconclusive = small, poorly fitted or top-dose-only effect; inactive = no such curve, though single readings can be large or run the other way. Potencies of inconclusive entries are left out as doubtful fits.

Assay: qHTS Assay for Agonists of the Thyroid Stimulating Hormone Receptor: Activators of Intracellular cAMP Concentrations in Parental HEK 293; also: nearly all actives have a fitted effect of over 55% in size; as to activation: % of control where 0% means no effect
Conditions: parental HEK293 CNG cAMP sensor, membrane potential fluorescence; activation: at 57.1 µM (top of the series) unless noted
Summary of the method: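 Counterscreen for endogenous-receptor signalling: CNG-channel HEK 293 cells report cAMP rise by membrane depolarization. After 60 min dye equilibration with 100 uM RO 20-1724, compounds incubated 30 min before bottom-read fluorescence at 590 nm.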
Potency is read from the fitted curve at half-maximal effect; tags tell the direction and shape of the fitted curve.

| Compound | Potency | activation |
| --- | --- | --- |
| COc1ccccc1OCc1ccc(C(=O)n2nc(C)c(Cl)c2C)o1 | inconclusive [activator, single point] | – |
| O=C(CCC1N=C2c3ccccc3N=C(SCc3ccc(F)cc3)N2C1=O)NCc1ccco1 (stereo not given) | inconclusive [activator, single point] | – |
| Cc1cc2ccc(OC(=O)c3ccc(N=C(N)N)cc3)cc2oc1=O | – | inactive: -6.25% [at 11.4 µM] |
| CCOc1ccccc1-n1c(SCC(=O)Nc2nccs2)nnc1-c1ccoc1C | active: 12.6 µM | – |
| CCOC(=O)c1ccccc1NC(=O)CSc1nnc(Cc2cccn2C)n1-c1ccc(C)cc1 | active: 31.6 µM | – |
| C[C@@H](C(=O)Nc1ccc2ccccc2c1)[C@@H]1C[C@@]1(C)[C@@H](NC(=O)c1cccnc1)c1ccccc1 | – | inactive: 26% |
| CCN(CC)C(=O)N1CCC(NC(=O)c2ccc(C(C)(C)C)cc2)CC1 | inconclusive [activator, single point] | – |
| O=C(Oc1ccccc1)N1CCC[C@@]2(CCN(c3ccncc3)C2)C1 | inconclusive [activator, partial curve] | – |
| O=C(CC(C(=O)O)C1CCCO1)NCCc1ccc2c(c1)OCO2 (stereo not given) | inconclusive [activator, single point] | – |
| Cc1ccc(OCc2nc(C#N)c(N3CCCC3)o2)cc1 | active: 20 µM | – |
| CCOC(=O)c1cc(C)n(CCc2ccccc2)c1C | active: 25.1 µM | – |
| Cc1c(OCC(=O)OC(C)(C)C)ccc2c3c(c(=O)oc12)CCC3 | inconclusive [activator, partial curve] | – |
| Cc1cc(C)c2c(-n3cccc3)c(C(=O)O)sc2n1 | inconclusive [activator, full curve] | – |
| O=C(O)CCC(=O)N(Cc1cccnc1)Cc1cccc(F)c1 | – | inactive: 9.71% |
| O=C(CN(Cc1ccco1)C(=O)CNS(=O)(=O)c1ccc(F)cc1)NCc1ccc(F)cc1 | inconclusive [activator, single point] | – |
| COc1ncc2nc(-c3cn(C)c4ccccc34)c(=O)n(C)c2n1 | – | inactive: 18.6% |
| CC(O)CC(C)O (stereo not given) | – | inactive: -4.12% |
| CCCCCN(C(=O)NC(=O)Nc1nncs1)S(C)(=O)=O | inconclusive [activator, single point] | – |
| Clc1ccccc1-c1nc(NCc2cccs2)c2ccccc2n1 | inconclusive [activator, partial curve] | – |
| COc1ccc(Cl)cc1C(=O)Nc1ccc2c(c1)OCO2 | inconclusive [activator, partial curve] | – |
| CSc1ccc(Cl)c(C(=O)OCC(=O)NCc2ccco2)c1 | inconclusive [activator, single point] | – |
| CCCCN1CCCC[C@H]1C(=O)Nc1c(C)cccc1C | inconclusive [activator, partial curve] | – |
| CCOC(=O)Cc1csc(NC(=O)CN(C)S(=O)(=O)c2cccc3cccnc23)n1 | inconclusive [activator, single point] | – |
| O=C1C2(c3ccccc3)CN(CCCO)CC1(c1ccccc1)CN(CCCO)C2 | inconclusive [activator, single point] | – |

| Compound | Potency | activation |
| --- | --- | --- |
| Cc1noc(C)c1COC(=O)c1ccccc1Sc1ccccc1C#N | inconclusive [activator, single point] | – |
| CC(C)c1nc(SCC(=O)N2CCOCC2)c2c(=O)n(C)c(=O)n(C)c2n1 | inconclusive [activator, single point] | – |
| Cc1noc(C)c1C(=O)OC(C(=O)NC1CCCC1)c1ccc(F)cc1 (stereo not given) | inconclusive [activator, partial curve] | – |
| O=C(NCC1CCCO1)C1CCCN(S(=O)(=O)c2cccc3nsnc23)C1 (stereo not given) | inconclusive [activator, single point] | – |
| Cc1ccc(C(=O)COc2cccc(NC(=O)c3ccco3)c2)cc1 | inconclusive [activator, single point] | – |
| O=S(=O)(c1ccc(OCc2nc3ccccc3s2)c(Cl)c1)N1CCOCC1 | inconclusive [activator, partial curve] | – |
| Clc1ccc(-n2nnnc2SCc2c(-c3ccccc3)nc3sccn23)cc1 | inconclusive [activator, partial curve] | – |
| O=C(c1cccc(F)c1)N1CCC2(CCCN(Cc3cc(C(F)(F)F)cc(C(F)(F)F)c3)C2)CC1 | inconclusive [activator, single point] | – |
| C=CCSc1nc2c(c(=O)[nH]c(=O)n2C)n1C/C=C(/C)Cl | – | inactive: 22.3% |
| Cc1cccc(Cc2c(C)nc3nc(SCC(=O)NCc4ccco4)nn3c2C)c1 | active: 10 µM | – |
| CCC(=O)c1ccc(OCC(=O)O)cc1 | – | inactive: 4.06% |
| Cc1nnc(NCc2ccco2)c2ccccc12 | – | inactive: -9.44% |
| CCc1ccc(CC)c(S(=O)(=O)Nc2ccc(C(=O)O)c(O)c2)c1 | inconclusive [activator, single point] | – |
| CC1CC(C)CN(C(=O)CSCC(=O)Nc2nc(-c3cccs3)cs2)C1 (stereo not given) | inconclusive [activator, partial curve] | – |
| COc1ccccc1CN1CCCC2(CCN(C(C)=O)CC2)C1 | inconclusive [activator, single point] | – |
| O=C1C2C(C(=O)N1CC1CCCO1)C1C=CC2C12CC2 (stereo not given) | inconclusive [activator, single point] | – |
| CSc1nnc(Cc2cc(=O)[nH]c(=O)[nH]2)n1-c1cccc(C)c1 | inconclusive [activator, single point] | – |
| CC(C)(C)c1ccc(-c2nnc(SCCC#N)n2C2CCCC2)cc1 | inconclusive [activator, single point] | – |
| COc1ccc(C[C@@H]2C(=O)N[C@H](C)C(=O)N(C)[C@@H]3Cc4ccc(cc4)Oc4cc(ccc4O)C[C@H](C(=O)N[C@@H](C)C(=O)N[C@H](C)C(=O)N2C)N(C)C3=O)cc1 | – | inactive: 1.76% [at 11.4 µM] |
| CS(=O)(=O)N1CCC2(CCN(c3ccccn3)CC2)CC1 | inconclusive [activator, single point] | – |
| CCOC(=O)c1c(NC(=O)CSc2nnc(-c3cccnc3)o2)sc(C)c1C | inconclusive [activator, single point] | – |
| CCOC(=O)c1c(C)c(C(=O)NCc2ccc3c(c2)OCO3)c(C)n1C | inconclusive [activator, single point] | – |
| Cc1nn(Cc2ccccc2Cl)c2sc(C(=O)NCCCn3ccnc3)cc12 | – | inactive: 11.6% |
| CCCCOc1ccccc1Cn1c(=O)oc2ccccc21 | inconclusive [activator, single point] | – |

| Compound | Potency | activation |
| --- | --- | --- |
| NC(N)=NCCCCN=C(N)N | inactive | – |
| COc1ccc(CCCO[C@@H](Cn2ccnc2)c2ccc(OC)cc2)cc1 | active: 31.6 µM | – |
| Cc1ccc(-c2nc(=S)c3c(n2Cc2ccco2)CC(C)(C)OC3)cc1 | inconclusive [activator, partial curve] | – |
| CCCc1cc(C(=O)Cc2ccc(C(=O)OCC)o2)c(O)cc1O | active: 20 µM | – |
| COc1ccc(S(=O)(=O)N2CCN(CC(=O)Nc3ccc(C)c(F)c3)CC2)cc1 | inconclusive [activator, single point] | – |
| Cc1cc(C)n(-c2cc(C)c(C)cc2Br)n1 | inconclusive [activator, partial curve] | – |
| Cc1noc(C)c1COC(=O)C1(c2cccc(F)c2)CCCC1 | inconclusive [activator, partial curve] | – |
| CCOc1ccc(-c2nn3c(-c4ccccc4)nnc3s2)cc1 | inconclusive [activator, single point] | – |
| CCOC(=O)C1(CC)NC(c2ccc(N(C)C)cc2)C2C(=O)N(C)C(=O)C21 (stereo not given) | inconclusive [activator, single point] | – |
| CCCCCn1c(=N)n(CC(O)COc2ccccc2OC)c2ccccc21 (stereo not given) | inconclusive [activator, partial curve] | – |
| c1ccc2sc(SCN(C3CCCCC3)C3CCCCC3)nc2c1 | – | inactive: -3.23% [at 11.4 µM] |
| COc1ccc(N(C)S(=O)(=O)c2ccc3c(c2)CCC(=O)N3)cc1 | – | inactive: 3.73% |
| CCC1Oc2ccc(C)cc2N(CC(=O)NCCc2ccc(OC)c(OC)c2)C1=O (stereo not given) | inconclusive [activator, full curve, poor fit] | – |
| N#Cc1cccc(-c2nccc(-n3ccnc3)n2)c1 | – | inactive: -13.8% |
| O=C(CSc1nnnn1-c1ccccc1)N1CCc2ccccc2C1 | active: 15.8 µM | – |
| CCN(C1CCCCC1)S(=O)(=O)c1cc(C)ccc1OC | inconclusive [activator, partial curve] | – |
| O=c1nc2n(c3cc(Cl)c(S(=O)(=O)N4CCOCC4)cc13)CCCCC2 | – | inactive: 8.18% |
| Clc1ccccc1-c1nnc2sc(-c3ccc4c(c3)OCO4)nn12 | inconclusive [activator, single point] | – |
| Cc1ccc(C(C(=O)NCc2ccco2)N(CC2CCCO2)C(=O)Cn2nnc3ccccc32)cc1 (stereo not given) | inconclusive [activator, partial curve] | – |
| CCc1nc(NCCCn2ccnc2)c2oc3ccccc3c2n1 | – | inactive: 10.9% |
| O=C(CN(Cc1ccco1)C(=O)CNS(=O)(=O)c1ccc(Cl)cc1)NC1CCCCC1 | inconclusive [activator, partial curve] | – |
| CCC1Oc2ccc(C)cc2N(CC(=O)N(Cc2ccc3c(c2)OCO3)CC2CCCO2)C1=O (stereo not given) | active: 5.01 µM | – |
